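Briefly, cells in 96-well plates were exposed to five compound concentrations for 48 h, and endpoints were estimated by linear interpolation. Here, GI50 denotes the concentration required for 50% inhibition of growth. At the TGI there is no net growth.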

The subject of the assay is NCI-H322M lung. Briefly: growth of human tumour cells (NCI), 48 h.
In turn, `C(=C1/CCCCC([n+]2ccccc2)=N1)/c1ccccc1` yielded a TGI of more than 100 µM.
On the same count and under the same terms, the same measure for `CC(CN(C)C)C(O)(c1ccccc1)c1ccccc1` (stereo not given): more than 100 µM.
`Cc1ccc(NC(=O)NC23CC4CC(CC(F)(C4)C2)C3)cc1` had a TGI of more than 100 µM.
For `C[C@@H]1CC[C@H]2C(CN3CCN(CC4=C(C(F)(F)F)O[C@@H]5O[C@@]6(C)CC[C@H]7[C@H](C)CC[C@@H]4[C@@]57OO6)CC3)=C(C(F)(F)F)O[C@@H]3O[C@@]4(C)CC[C@@H]1[C@]32OO4`, the GI50 was 41.4 µM and the TGI was more than 100 µM.
Regarding `Clc1cccc(Cl)c1C1ON=C(c2ccccc2)N1C12CC3CC(CC(C3)C1)C2` (stereo not given), the TGI is more than 100 µM.
On the same count and under the same terms, the same measure for `CCCNC(=O)Cn1c(-c2ccccc2)cc2ccccc21`: more than 100 µM; for `COC(=N)/C(=C1\OC(N)=C(c2ccc(Cl)cc2)C1=O)c1ccc(Cl)cc1`: more than 100 µM.
Take `O=C(O)c1c(Cl)c(Cl)c(Cl)c(Cl)c1-c1c2cc(I)c(=O)c(I)c-2oc2c(I)c(O)c(I)cc12`: the GI50 was 39.9 µM and the TGI is 111 µM.

Source of the values: PubChem BioAssay (NCI).
